# Assay results reported in PubChem BioAssay AID485344 (National Center for Advancing Translational Sciences (NCATS), 2010).
# Among all 340,000 compounds or so, about 6,900 (2%) were called active. Cut-off read from the data, not from the text of the source: active = inhibition above about 30%; inactive = below that, where a call was filed. The entries are a selection whose mix differs from that of the whole data set. Where no call is shown, the source filed none. Some compounds were tested as several samples or in several runs, with calls that do not always agree.
# Target: D(2) dopamine receptor (Homo sapiens) (UniProt P14416)
# Assay: HTS Assay for Allosteric Antagonists of the Human D2 Dopamine Receptor: Primary Screen for Antagonists; note: 0% is about no effect
# Settings: HEK293 TREx D2 cells, calcium flux, dopamine EC80; at 10 µM; stronger effect = higher value
# In short: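 Cells plated overnight at 30 C with tetracycline; no-wash calcium dye, 30–90 min RT; 10 s baseline; compound pinned; 180 s read; EC80 dopamine added; another 180 s read.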
# UniProt P14416, sequence (P14416 whole entry, looked up): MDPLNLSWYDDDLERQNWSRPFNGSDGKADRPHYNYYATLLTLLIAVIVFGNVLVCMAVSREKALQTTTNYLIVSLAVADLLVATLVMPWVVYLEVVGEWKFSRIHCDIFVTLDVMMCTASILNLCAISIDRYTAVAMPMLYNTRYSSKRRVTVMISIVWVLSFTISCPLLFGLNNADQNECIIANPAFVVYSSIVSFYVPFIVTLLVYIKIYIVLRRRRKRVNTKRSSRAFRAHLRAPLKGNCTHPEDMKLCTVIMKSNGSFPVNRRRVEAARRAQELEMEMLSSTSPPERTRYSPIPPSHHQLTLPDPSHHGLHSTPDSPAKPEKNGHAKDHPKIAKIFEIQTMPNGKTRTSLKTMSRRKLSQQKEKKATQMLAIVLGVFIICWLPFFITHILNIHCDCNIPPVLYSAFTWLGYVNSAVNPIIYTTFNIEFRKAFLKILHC
row,SMILES,inhibition
1,Cc1ccc(CNC(=O)CCS(=O)(=O)c2ccc3c(c2)CC(C)N3C(=O)C2CC2)cc1 (stereo unspecified),-8.86%
2,COc1ccc(Cn2c3nc4ccccc4nc3c3c(=O)n(Cc4ccco4)cnc32)cc1,active: 40.2%
3,Fc1ccc(-c2csc(=Nc3cccc(C(F)(F)F)c3)n2Cc2ccc3c(c2)OCO3)cc1,-0.614%
4,O=C1C(=O)N(C2CCNCC2)CCN1Cc1ccccc1,14.4%
5,Cc1cccc(C)c1NC(=O)CCCn1c(=O)c2cccn2c2ccccc21,7.85%
6,Fc1ccc(-c2cc(-c3ccccc3)c3c(n2)-c2ccccc2OC3)cc1,-11.2%
7,COc1ccc(-c2nc(CCNC(=O)c3ccccc3)cs2)cc1OC,-2.9%
8,Cc1cccc(/C=N\NC(=O)c2ccc(Cl)cc2)c1O,active: 30.2%
9,O=C(Nc1sc2c(c1C(=O)NCC1CCCO1)CCC2)c1cc(=O)c2cc(Cl)ccc2o1 (stereo unspecified),-5.79%
10,Cc1ccc(CCNC(=O)c2ccc3c(c2)N(Cc2ccccc2F)C(=O)c2ccccc2S3=O)cc1 (stereo unspecified),4.58%
11,COc1cccc(NC(=O)CCCn2c(=O)c3cccn3c3cccnc32)c1,3.07%
12,CCCCCCC(C)NC(=S)Nc1cc(S(=O)(=O)N(C)C)ccc1C (stereo unspecified),active: 92.2%
13,CCOC(=O)c1cc(-c2ccccc2)n(CC(=O)Nc2ccccc2OCC)c1C,-7.68%
14,Cn1nnnc1SCCCNCc1cc(Br)ccc1OCc1ccccc1F,-18.8%
15,COc1cc(NS(=O)(=O)c2c(C(=O)N3CCCCC3)c(C)n(C)c2C)cc(OC)c1OC,3.69%
16,CCC(C)c1ccccc1OCC(=O)Nc1ccc(S(=O)(=O)Nc2cc(C)on2)cc1 (stereo unspecified),-8.96%
17,CC1CCc2c(sc3nnn(CC(=O)Nc4c(C(C)C)cccc4C(C)C)c(=O)c23)C1 (stereo unspecified),2.3%
18,O=C(Nc1cccc2cccnc12)c1ccc(-c2cccc(Cl)c2)o1,11.6%
19,COc1ccc(-c2cc3ncc(C(=O)c4cc([N+](=O)[O-])ccc4O)cn3n2)cc1,7.37%
20,CCCn1c2ccccc2c2cnn(CC(=O)NCCCN(CC)c3ccccc3)c(=O)c21,8.81%
21,COc1cc(NC(=O)CN2C(=O)COc3ccc(S(=O)(=O)NC4CCCC4)cc32)cc(OC)c1,8.79%
22,O=C(c1ccc2c(c1)N(Cc1c(F)cccc1Cl)C(=O)c1ccccc1S2)N1CCCC1,-15.1%
23,CCc1ccc(NC(=O)c2ccc(Cn3nc(N4CCN(c5ccccc5)CC4)ccc3=O)o2)cc1,6.34%
24,Cc1ccc(Cl)cc1-n1ncc2c(Nc3ccc4c(c3)OCCO4)ncnc21,21.5%

row,SMILES,inhibition
1,O=C1C(NS(=O)(=O)c2cccs2)=C(N2CCOCC2)C(=O)c2ccccc21,active: 38.1%
2,CC(=O)N1CCCC1c1nc2ccccc2n1Cc1ccc(F)cc1 (stereo unspecified),-5.36%
3,COc1ccc(CNC(=O)c2cc3cccc4c3n2CC(C)S4)cc1OC (stereo unspecified),-3.05%
4,COCCCn1c(=O)c2sccc2n2c(CCCC(=O)Nc3cccc(OC)c3)nnc12,-7.16%
5,Cc1ccc(CNS(=O)(=O)c2ccc3[nH]c4c(c3c2)CCCCC4)cc1,-0.405%
6,Cc1cccc(NC(=O)C2CCCN(S(=O)(=O)c3ccc4c(c3)CCCC(=O)N4)C2)c1 (stereo unspecified),-10.9%
7,COc1ccc(CC(=O)OCC(=O)NCc2ccco2)cc1,active: 35.5%
8,COc1ccc(Cl)cc1NC(=O)Cn1nc(C(F)(F)F)c2c1CCCC2,-9.89%
9,CCN(CC)S(=O)(=O)c1ccc(C(=O)NC2CC(=O)N(c3ccc(OC)c(OC)c3)C2)cc1 (stereo unspecified),-12.4%
10,CN1CCCCC1CCN1c2ccccc2Sc2ccc(S(C)=O)cc21 (stereo unspecified),active: 95.7%
11,CC(=O)c1ccc(NC(=O)c2cc3sccc3n2Cc2ccc(Cl)cc2)cc1,8.7%
12,Cc1ccc(N(CC(=O)NCCSc2ccccc2)S(=O)(=O)c2ccc(F)cc2)cc1,-1.08%
13,CCOCCCNC(=O)C(=O)Nc1c2c(nn1-c1ccccc1)CSC2,-13.1%
14,O=C(COc1ccc(Cl)cc1)NCC(c1ccco1)S(=O)(=O)c1ccc(F)cc1 (stereo unspecified),2.15%
15,COc1ccc2c(C)c(CCC(=O)NCc3ccccc3OC)c(=O)oc2c1,4.34%
16,COc1ccc(C)cc1-n1nnc(S(=O)(=O)c2ccc(C)cc2)c1C,9.99%
17,O=C(Cn1c(-c2cccs2)cc2cc(F)ccc21)N1CCN(c2ccccc2)CC1,1.7%
18,COc1ccc(CNc2oc(/C=C/c3cc(OC)c(OC)c(OC)c3)nc2C#N)cc1,27.2%
19,CCOc1ccc(Nc2oc(/C=C/c3ccc(OC)c(OC)c3)nc2C#N)cc1,0.001%
20,Cc1cccn2c(=O)c(C(=O)NC(C)c3ccccc3)c(O)nc12 (stereo unspecified),4.09%
21,O=S(=O)(c1ccc(OCC(O)CN2CCN(c3ccccc3)CC2)cc1)N1CCOCC1 (stereo unspecified),active: 95.9%
22,COc1cccc(Nc2nc3c(S(=O)(=O)c4cc(C)ccc4C)nnn3c3ccsc23)c1,-13.9%
23,Cc1ccc(NC(=O)N2CCN(Cc3nc4ccc(C)cc4o3)CC2)cc1,8.86%
24,O=C(CN1c2ccc(Br)cc2-c2ccccc2S1(=O)=O)N1CCCCC1,-9.65%

row,SMILES,inhibition
1,COc1cc(/C=N/NC(=O)c2cccc3ccccc23)cc(OC)c1OC,active: 30.4%
2,CC(=O)Nc1c(C)nn(-c2ccccc2)c1N1CCC(C(=O)Nc2ccccc2C(F)(F)F)CC1,7.99%
3,CCOC(=O)N1CCN(S(=O)(=O)N2CCCC(C(=O)NCc3cc(Br)ccc3OC)C2)CC1 (stereo unspecified),-28%
4,Cc1cc(=O)c2cc(C(=O)Nc3ccc(F)cc3)ccc2[nH]1,14.4%
5,CC(C)c1ccc2c(c1)c(SC(C)(C)C)c(CC(C)(C)C(=O)O)n2Cc1ccc(Cl)cc1,active: 47.1%
6,Cc1cc(C)c(NC(=O)CSC2=Nc3ccccc3C3=NC(CC(=O)NCc4cccs4)C(=O)N23)c(C)c1 (stereo unspecified),0.407%
7,CCN1CCc2nc3sc(C(=O)Nc4ccccc4OC(F)(F)F)c(N)c3cc2C1,-11%
8,CCOc1ccc(CNC(=O)c2cc3cc(S(=O)(=O)N4CCCCC4)ccc3n2C)cc1,-4.26%
9,Oc1ccc(NCc2ccccc2OCc2ccccc2)cc1,4.92%
10,COc1ccc(C(=O)NCCc2csc(-c3ccc(Cl)cc3)n2)c(OC)c1,-9.73%
11,CSc1ccc(CCNC(=O)CN2C(=O)COc3ccc(S(=O)(=O)N4CCCCCC4)cc32)cc1,10.9%
12,Cc1ccc(Cl)cc1-n1c(SCC(=O)NCc2ccccc2)nc2n[nH]c(C)c2c1=N,-6.6%
13,COc1ccc(S(=O)(=O)Nc2cccc(-c3ccc(N4CCCCC4)nn3)c2)cc1F,-5.17%
14,COc1ccccc1N=Cc1nc(-c2ccccc2)oc1OC(C)=O,active: 50.1%
15,COc1ccc(NC(=O)C(NS(=O)(=O)c2cccc3nsnc23)C(C)C)cc1OC (stereo unspecified),-16.8%
16,COc1ccc(-c2nc(S(=O)(=O)c3ccccc3)c(N3CCC(C)CC3)o2)cc1,5.76%
17,CN1C(=O)c2ccccc2Sc2ccc(NC(=O)N3CCN(c4ccc(F)cc4)CC3)cc21,22.1%
18,CC(C)(C)C(=O)NC(=S)NNC(=O)c1ccc(Cl)cc1Cl,active: 91.2%
19,CCN(CC)CCNC(=O)c1cc2c(-c3cccc(OC)c3)nn(C)c2s1,15.5%
20,CCOc1ccccc1NC(=O)Cn1c(=O)n(CCCC(=O)NCc2ccc(C)cc2)c(=O)c2ccccc21,5.41%
21,Cc1nn(C(C)C(=O)NCc2ccco2)c(=O)c2nn(-c3ccccc3)c(C)c12 (stereo unspecified),4.14%
22,Cc1ccc2[nH]cc(C(c3ccccc3)c3ccc(Cl)s3)c2c1 (stereo unspecified),2.24%
23,COc1ccccc1OCC(=O)NCCS(=O)(=O)N1CCN(c2ccccc2OC)CC1,12.4%
24,Cc1cccc2sc(N(Cc3cccnc3)C(=O)c3ccco3)nc12,-11.7%

row,SMILES,inhibition
1,CCOC(=O)c1c(C)[nH]c(C)c1S(=O)(=O)N1CCCC(C(=O)N2CCN(c3cccc(Cl)c3)CC2)C1 (stereo unspecified),3.36%
2,COc1ccccc1C(=O)Nc1ccc(-c2cc(C(F)(F)F)nn2-c2ccccc2)cc1,-26.7%
3,COc1ccc(CCNC(=O)CN(c2ccccc2)S(=O)(=O)N(C)C)cc1,13.7%
4,Cc1ccc2nc(-c3ccc(C)s3)c(Nc3ccc4c(c3)OCCO4)n2c1,-7.62%
5,O=C(Nc1ccc(F)c(F)c1)C(c1ccccc1)N1Cc2ccccc2C1=O (stereo unspecified),8.5%
6,O=C(NCc1ccccc1Cl)c1ccc2c(c1)NC(=O)C(CS(=O)(=O)Cc1ccc(Cl)cc1)N2 (stereo unspecified),-22.4%
7,COc1c2c(cc3c1C(CC(O)Cc1ccccc1)N(C)CC3)OCO2 (stereo unspecified),active: 57.2%
8,CC1CN(C(=O)N2CCC(C(=O)NCc3ccccc3F)CC2)c2cc(Cl)ccc2O1 (stereo unspecified),-9.7%
9,COc1ccccc1N1CCN(C(=O)Cn2c(=O)nc(-c3ccccc3)c3ccccc32)CC1,23.4%
10,CCOc1ccc(NC(=O)C(C)n2c(=O)cc(-c3ccccc3)c3c(C)nn(C)c32)cc1 (stereo unspecified),0.479%
11,Cc1ccccc1OCCSc1nnc(-c2cccs2)o1,-2.65%
12,Cc1ccc(NC(=O)Cn2c(=O)n(CCC(C)C)c(=O)c3cccnc32)cc1C,-1.22%
13,CCC(C(=O)NCCC(C)C)N(C(=O)Cn1nnc(-c2ccc(C)cc2)n1)c1cccc(O)c1 (stereo unspecified),-7.92%
14,COc1ccc(Cl)cc1NC(=O)Cn1c(=O)n(Cc2ccc(F)cc2)c(=O)c2cccnc21,-11.5%
15,CCc1cccc(C)c1NC(=O)CSc1n[nH]c(-c2ccccc2)n1,1.24%
16,Cn1ncc2c(Nc3cccc(C#N)c3)ncnc21,-7.56%
17,Cc1cc(C)cc(NC(=O)C(=O)NCC(c2cccnc2)N2CCOCC2)c1 (stereo unspecified),6.68%
18,CC1CCC2(CC1)NC(=O)N(NC(=O)c1cccc(N(C)C)c1)C2=O (stereo unspecified),active: 33.5%
19,CCOC(=O)c1ccc(NC(=O)C2=C(C)C(=O)OC23CCN(C(C)=O)CC3)cc1,-1.27%
20,Cc1ccc(Cl)cc1NC(=O)CCn1cnc2ccccc2c1=O,21%
21,COc1cc(Nc2nc3ccc(Cl)cc3nc2-n2nc(C)cc2C)cc(OC)c1,8.46%
22,CCOC(=O)c1cccc(NC(=O)c2cc(C)nc3c2c(C)nn3-c2ccc(C)cc2)c1,-5.07%
23,O=C(CN1C(=O)COc2ccc(S(=O)(=O)NC3CCCC3)cc21)NCc1ccccc1Cl,-11.6%
24,O=S(=O)(NCC(c1cccs1)S(=O)(=O)c1ccccc1)c1ccc(F)cc1 (stereo unspecified),0.912%
